32 compounds from the supplement of paper PMC6609913 can be followed below.

Structures can show the parent of a compound that is named as a salt. ± gives the standard deviation of the averaged measurements. In all, about 1,300 compounds were measured (“normalised cell viability”: median about 1, lowest 2% from about 0.14 on). The list shows a part of the results.

The test system of this test is V-C8 (BRCA2-deficient hamster cells). Put plainly: normalised cell viability (fraction of plate median); higher = more viable cells (less toxic). Conditions: 5 µM. In outline: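 Library drugs, held as 10 mM stocks in DMSO, were diluted to 5 μM in 100 μl medium and added to 96-well plates of V-C8 hamster cells, either lacking BRCA2 or with BRCA2 restored, 24 h after seeding. Plates ran for 3 days (screen 1) or 6 days (screen 2), alongside solvent-only wells. Viability came from a resazurin readout, median-plate normalised, as the mean of triplicate wells.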

Consider `CC1(C)S[C@@H]2[C@H](NC(=O)[C@H](N)c3ccc(O)cc3)C(=O)N2[C@H]1C(=O)O` [Amoxicillin], for which the normalised cell viability stood at 1.25 ± 0.057 (treatment time: 3 days) and 1.12 ± 0.16 (treatment time: 6 days).
With `OCCOCCN1CCN(C2=Nc3ccccc3Sc3ccccc32)CC1` [Quetiapine], the normalised cell viability by setting is: (treatment time: 3 days) 1.1 ± 0.02; (treatment time: 6 days) 1.135 ± 0.0073.
Take `Nc1nc(Cl)nc2c1ncn2[C@H]1C[C@H](O)[C@@H](CO)O1` [Cladribine]: the normalised cell viability was 0.245 ± 0.034 (treatment time: 3 days) and 0.235 ± 0.0041 (treatment time: 6 days).
For `CN[C@@H]1[C@H](O[C@H]2[C@H](O[C@H]3[C@H](O)[C@@H](O)[C@H](N=C(N)N)[C@@H](O)[C@@H]3N=C(N)N)O[C@@H](C)[C@]2(O)C=O)O[C@@H](CO)[C@H](O)[C@H]1O` [Streptomycin sulfate] the same measures were 0.985 ± 0.062 and 1.1 ± 0.06.
The corresponding values for `C[C@]12CCC(=O)C=C1CC[C@@H]1[C@@H]2[C@@H](O)C[C@@]2(C)[C@H]1CC[C@]2(O)C(=O)CO` [Hydrocortisone base] are 1.04 ± 0.045 and 0.989 ± 0.016.
For `CCCCCCC[N+](CC)(CC)CCCCc1ccc(Cl)cc1` [Clofilium tosylate] the same measures were 0.842 ± 0.068 and 0.889 ± 0.12.
In the case of `CNCCCC1c2ccccc2C=Cc2ccccc21` [Protriptyline hydrochloride], the normalised cell viability runs as follows: (treatment time: 3 days) 0.919 ± 0.021; (treatment time: 6 days) 0.952 ± 0.014.
`Oc1ncnc2[nH]ncc12` [Allopurinol]: the normalised cell viability came to 1.06 ± 0.1 (treatment time: 3 days) and 1.03 ± 0.053 (treatment time: 6 days).
For `C[N+]1(CCCCC[N+]2(C)CCCC2)CCCC1` [Pentolinium bitartrate], the normalised cell viability reads like this: (treatment time: 3 days) 0.986 ± 0.1; (treatment time: 6 days) 0.992 ± 0.011.
For `Cc1onc(-c2ccccc2)c1-c1ccc(S(N)(=O)=O)cc1` [Valdecoxib] the same measures were 1.1 ± 0.084 and 1.03 ± 0.03.
Turning to `CCCc1cc(=O)[nH]c(=S)[nH]1` [Propylthiouracil], the normalised cell viability was 1.02 ± 0.022 (treatment time: 3 days) and 1.025 ± 0.009 (treatment time: 6 days).
For `CCCCN(CCCC)CCC(O)c1cc2c(Cl)cc(Cl)cc2c2cc(C(F)(F)F)ccc12` (centres undefined) [Halofantrine hydrochloride] the same measures were 0.815 ± 0.015 and 0.832 ± 0.052.
The corresponding values for `C#C[C@]1(O)CC[C@H]2[C@@H]3CCc4cc(O)ccc4[C@H]3CC[C@@]21C` [Ethinylestradiol] are 0.969 ± 0.028 and 1.05 ± 0.036.
For `CCOc1cc(CC(=O)N[C@@H](CC(C)C)c2ccccc2N2CCCCC2)ccc1C(=O)O` [Repaglinide] the same measures were 0.912 ± 0.2 and 1.06 ± 0.15.
With `CCOC(=O)C1=C(C)NC(C)=C(C(=O)OCC)C1c1ccccc1/C=C/C(=O)OC(C)(C)C` [Lacidipine], the normalised cell viability turned out to be 0.971 ± 0.024 (treatment time: 3 days) and 0.888 ± 0.056 (treatment time: 6 days).
For `COc1ccc(C(=O)CC(=O)c2ccc(C(C)(C)C)cc2)cc1` [Avobenzone] the same measures were 1.01 ± 0.019 and 0.986 ± 0.044.
The corresponding values for `COc1ncnc(NS(=O)(=O)c2ccc(N)cc2)c1OC` [Sulfadoxine] are 1.16 ± 0.35 and 1.01 ± 0.074.
The corresponding values for `CC(=O)OCC(=O)[C@@]1(O)[C@H](C)C[C@H]2[C@@H]3CCC4=CC(=O)C=C[C@]4(C)[C@@]3(F)[C@@H](O)C[C@@]21C` [Dexamethasone acetate] are 1.06 ± 0.051 and 1.05 ± 0.074.
Take `COc1c(N2C[C@@H]3CCCN[C@@H]3C2)c(F)cc2c(=O)c(C(=O)O)cn(C3CC3)c12` [Moxifloxacin]: the normalised cell viability runs as follows: (treatment time: 3 days) 1.02 ± 0.1; (treatment time: 6 days) 0.974 ± 0.052.
For `COc1ccc(C(=O)c2ccccc2)c(O)c1` [Oxybenzone] the same measures were 0.975 ± 0.061 and 1 ± 0.011.
For `CCCCCN(CCCCC)C(=O)C(CCC(=O)O)NC(=O)c1ccc(Cl)c(Cl)c1` (centres undefined) [Lorglumide sodium salt] the same measures were 1.023 ± 0.0093 and 1 ± 0.021.
As to `CC(C)(C)NC(=O)[C@@H]1C[C@@H]2CCCC[C@@H]2CN1C[C@@H](O)[C@H](Cc1ccccc1)NC(=O)[C@H](CC(N)=O)NC(=O)c1ccc2ccccc2n1` [Saquinavir mesylate], the normalised cell viability stood at 0.823 ± 0.21 (treatment time: 3 days) and 0.943 ± 0.06 (treatment time: 6 days).
For `Nc1nc2c(ncn2COCCO)c(=O)[nH]1` [Acyclovir] the same measures were 1.01 ± 0.024 and 0.996 ± 0.037.
Consider `CCCC1O[C@@H]2C[C@H]3[C@@H]4CCC5=CC(=O)C=C[C@]5(C)[C@H]4[C@@H](O)C[C@]3(C)[C@]2(C(=O)CO)O1` (some centres undefined) [Budesonide], for which the normalised cell viability by setting is: (treatment time: 3 days) 0.694 ± 0.041; (treatment time: 6 days) 0.709 ± 0.068.
Turning to `Cc1ccccc1OCC(O)CO` (centres undefined) [Mephenesin], the normalised cell viability (treatment time: 3 days) stood at 0.965 ± 0.04 and the normalised cell viability (treatment time: 6 days) worked out at 0.998 ± 0.037.
On to `O=C1CN(/N=C/c2ccc([N+](=O)[O-])o2)C(=O)N1` [Nitrofurantoin], for which the normalised cell viability was 0.937 ± 0.025 (treatment time: 3 days) and 1.15 ± 0.29 (treatment time: 6 days).
For `CCN(CC)CCOC(=O)C(Cc1cccc2ccccc12)CC1CCCO1` (centres undefined) [Nafronyl oxalate] the same measures were 0.1613 ± 0.00033 and 0.14 ± 0.0088.
Regarding `C[C@H](N)[C@H](O)c1cccc(O)c1` [Metaraminol bitartrate], the normalised cell viability stood at 1.19 ± 0.19 (treatment time: 3 days) and 0.98 ± 0.15 (treatment time: 6 days).
For the compound `CCOC(=O)n1ccn(C)c1=S` [Carbimazole], the normalised cell viability by setting is: (treatment time: 3 days) 0.287 ± 0.012; (treatment time: 6 days) 0.428 ± 0.02.
For `O=C1CN(/N=C/c2ccc(-c3ccc([N+](=O)[O-])cc3)o2)C(=O)N1` [Dantrolene sodium salt] the same measures were 1.04 ± 0.083 and 1.08 ± 0.043.
The corresponding values for `Cc1cc(NS(=O)(=O)c2ccc(N)cc2)no1` [Sulfamethoxazole] are 1.02 ± 0.028 and 0.959 ± 0.076.
The corresponding values for `CN[C@@H]1[C@@H](O)[C@@H](O[C@@H]2[C@@H](O)[C@H](O[C@H]3OC(CN)=CC[C@H]3N)[C@@H](N)C[C@H]2N)OC[C@]1(C)O` [Sisomicin sulfate] are 0.157 ± 0.0072 and 0.145 ± 0.0056.
